# Test results from PubChem BioAssay AID1345082 (National Center for Advancing Translational Sciences (NCATS), 2018).
# Among all 94,000 compounds or so, about 4,000 (4.3%) were called active. Inconclusive results, whose numbers are uncertain, are shown with a selection of clear calls. The call rests on the fitted dose curve; in most records, active means well fitted inhibition curve with a large enough effect; inconclusive means small, poorly fitted or top-dose-only effect; inactive means no such curve, though single readings can be large or run the other way. A potency beside an inconclusive call is a rough fit, not a confirmed value.
# Experiment: Cytotoxic Profiling in NIH 3T3 Cell Line of Diverse Libraries Using Quantitative High-Throughput Screening; further: nearly all actives have a fitted effect of over 55% in size
# Details: NIH 3T3 viability, CellTiter-Glo ATP luminescence, 48-72 h; series mostly up to 96.7 µM
# In short: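 ATP-dependent luminescence (CellTiter-Glo) served as the viability signal for NIH 3T3 cells treated with compound for 48 or 72 hr at 37 °C.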
# Potency means the concentration at half of the fitted maximal effect; tags describe the fitted curve by direction and shape.
row,Compound,Potency
1,Nc1ncccc1CN1CC[C@@H]2OCC(=O)N(Cc3c[nH]c4ccccc34)[C@H]2CC1,"inconclusive: 44.7 µM [inhibitor, full curve, poor fit]"
2,COc1ccc(CC(=O)NC2CCN(c3cc(-c4ccc(OC)cc4)[nH]n3)CC2)cc1,"inconclusive: 22.4 µM [inhibitor, full curve]"
3,CCC1=Nc2cc(C(=O)NCc3ccc(F)cc3)ccc2Sc2ccc(C)cc21,"inconclusive: 7.08 µM [inhibitor, full curve]"
4,CCc1noc(-c2cccn3c(CNC(=O)Cc4ccc(Cl)cc4)nnc23)n1,inactive
5,Cc1n[nH]c(C)c1CN1CCC2(CC1)CCN(C1CCOCC1)CC2CO (centres undefined),inactive
6,Cc1ccc(-c2cn3cc(C(=O)NCc4ccccn4)nc3s2)cc1,"inconclusive: 44.7 µM [inhibitor, partial curve, poor fit]"
7,COc1cccc(-c2cccc(C(=O)N3CCN([S+](=O)([O-])c4cccc(C(F)(F)F)c4)CC3)c2)c1,inactive
8,CNC(=O)c1cc(C2CC2)nc2onc(C3CCN(C(=O)C4CCCCC4)C3)c12 (centres undefined),"inconclusive: 50.1 µM [inhibitor, partial curve, poor fit]"
9,COc1ccccc1C(=O)NCCNC(=O)c1cccc(-c2ncccc2C#N)c1,"inconclusive: 44.7 µM [inhibitor, partial curve, poor fit]"
10,Nc1ncccc1CN1CCc2c(n(Cc3ccccc3)n(-c3ccccc3)c2=O)C1,inactive
11,O=C1[C@@H]2C[C@@H](CN2Cc2ccc3c(c2)OCO3)Oc2ccccc2N1Cc1ccccn1,"inconclusive: 89.1 µM [inhibitor, partial curve, poor fit]"
12,COc1cncc(CN2C[C@H]3[C@H](C2)[S+](=O)([O-])C(C)(C)C(=O)N3CC2CCOCC2)c1,"inconclusive: 56.2 µM [inhibitor, partial curve, poor fit]"
13,Cc1nc(-c2ccc(F)cc2)n(Cc2cccc(F)c2)c(=O)c1CCO,"inconclusive: 50.1 µM [inhibitor, partial curve, poor fit]"
14,CCCN1CCN(C(=O)c2c(C)oc3c2CN(Cc2cccc(F)c2)CC3)CC1,inactive
15,Cc1cc(NC(=O)c2ccc3c(c2)N(C)C2CCCN2C3=O)ccc1Br (centres undefined),inactive
16,Cc1cc(C)n(Cc2ccc(C(=O)N3CCC4(CC3)CCC(O)(CN(C)C)CC4)o2)n1,inactive
17,CCC(CC)C(=O)NC[C@@H]1C=C(C)[C@H](Cc2nc3ccc(F)cc3[nH]2)C[C@H]1C(C)C,active: 100 µM
18,CC(C)c1ccc(CN2CC(COc3ccccc3)C3(C2)CN(C(=O)c2cn[nH]c2)C3)cc1 (centres undefined),"inconclusive: 44.7 µM [inhibitor, partial curve, poor fit]"
19,O=C(C1CC(=O)N(c2n[nH]c3cccc(F)c23)C1)N1CCN(c2ccccc2)CC1 (centres undefined),"inconclusive: 35.5 µM [inhibitor, single point]"
20,Cc1ccc(C(=O)NC2CCCN(c3cc(N(C)C)ncn3)C2)s1 (centres undefined),"inconclusive: 44.7 µM [inhibitor, partial curve, poor fit]"

row,Compound,Potency
1,O=C(NCCN1CCOCC1)c1ccc(-c2ccc(N3CCCCC3)nc2)cc1,"inconclusive: 44.7 µM [inhibitor, partial curve, poor fit]"
2,CC1=C[C@@H](CN(C)CCO)[C@H](C(C)C)C[C@H]1Cc1nnc(-c2ccccc2)o1,"inconclusive: 89.1 µM [inhibitor, partial curve, poor fit]"
3,Cc1noc(C)c1-c1cc2c(cc(C)n2CCN(C)C)c(-c2cccc(O)c2)n1,"inconclusive: 8.91 µM [inhibitor, full curve, poor fit]"
4,Cc1cc(NC(=O)c2cc3n(n2)CC(c2ccc4c(c2)OCO4)OC3)ccc1F (centres undefined),"inconclusive: 50.1 µM [inhibitor, partial curve, poor fit]"
5,COc1ccc(-c2cc(-c3ccc(N4CCOCC4)nc3)cn3cncc23)cc1,"inconclusive: 63.1 µM [inhibitor, partial curve, poor fit]"
6,O=C(c1ccccc1F)N1CCC2(CC1)CCN(CCc1ccccc1)c1ccccc1O2,"inconclusive: 50.1 µM [inhibitor, partial curve, poor fit]"
7,O=c1c2nc(-c3ccc4c(c3)OCO4)ccc2ncn1Cc1ccccn1,"inconclusive: 44.7 µM [inhibitor, partial curve, poor fit]"
8,O=C(N[C@H]1CCN2C(=O)c3cc(-c4ccccc4F)ccc3NC(=O)[C@@H]2C1)c1ccc(F)c(Cl)c1,active: 10 µM
9,O=c1c2nc(OCc3ccccc3)ccc2ncn1Cc1ccccn1,"inconclusive: 100 µM [inhibitor, single point]"
10,COc1ccc(-c2[nH]ncc2CN2CCCC(C(=O)NCc3ccccc3)CCNC(=O)CC2)cc1 (centres undefined),inactive
11,CC(=O)N(C1CC1)C1CCOC2(CCN(C(=O)COc3ccc(C)cc3)CC2)C1 (centres undefined),inactive
12,O=C(NC1CCN(c2cc(-c3ccc(Cl)cc3)[nH]n2)CC1)c1ccccc1F,"inconclusive: 39.8 µM [inhibitor, partial curve]"
13,COc1ccc(-c2ccc3nnc(CNC(=O)c4cccc5[nH]ccc45)n3n2)cc1,"inconclusive: 50.1 µM [inhibitor, partial curve, poor fit]"
14,Cn1ncc2c(C(=O)NC3CC3)cc(-c3ccc([S+](C)(=O)[O-])cc3)nc21,inactive
15,Cc1ccc(NC(=O)c2cc3c(s2)CN(C2CC2)C3)cc1,"inconclusive: 70.8 µM [inhibitor, partial curve, poor fit]"
16,COCCn1ncc(N2CCCC(CC(=O)NCc3ccc(C)o3)C2)cc1=O (centres undefined),inactive
17,O=C(NCc1ccccc1)N1CCC(O)(c2csc(CN3CCc4ccccc4C3)n2)CC1,"inconclusive: 89.1 µM [inhibitor, single point]"
18,CCNC(=O)C1CCN(C(=O)N2CC3CC(C2)[C@H]2CCCC(=O)N2C3)CC1 (some centres undefined),inactive
19,Cc1nn(-c2ccccc2)c2c1C(C)N(C1CCN([S+](=O)([O-])c3ccccc3)C1)C2=O (centres undefined),"inconclusive: 28.2 µM [inhibitor, partial curve, poor fit]"
